Laboratory results published in publication PMC12136788.
This is one part of the list.

T1: UNK ZnF1-3 (human, UniProt Q9C0B0 31-174)
T1 sequence: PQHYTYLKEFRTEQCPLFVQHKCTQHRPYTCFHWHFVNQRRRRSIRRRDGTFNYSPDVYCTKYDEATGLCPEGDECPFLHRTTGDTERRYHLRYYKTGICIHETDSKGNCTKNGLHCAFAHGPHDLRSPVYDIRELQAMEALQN

B1: chr18:42480448:42480449:+_ENSMUSG00000024491_ENSMUST00000091920|mus_mus|motif|central (ssRNA)
RNA: GGGAGUUCUACAGUCCGACGAUCGAAGUGUUCGUUGAGCUUGGUAAUGUUGUUCAAUUCCUGGGGGAUUUUUUUCACCUCGGGUUUGGUGUUUGUAUAAUGAUUCUUCCUCAGGAAGCCUGGUUUACUUUGAUUGUUGUUCCCCAACAGAGGAUUGAGCAUCA
B2: 156518519_156521367_705_CDS_ENSG00000105983_ENST00000359422|human|control|control (ssRNA)
RNA: GGGAGUUCUACAGUCCGACGAUCUAUUCCAGGCCCCCUUGUUCCUUUUGGCAUUGCUGUUUCAUCAACCAAUAGGCAAAGAAUAUUACAAGCCACCAAGAGGACCGAGAUGGAUGUCUCAAUAAGAAGGAGAACCAUAACAGCCAACAGAGGAUUGAGCAUCA
B3: chr8:74858975:74858976:-_ENSG00000154582_ENST00000284811|hu_mus|hu_hu_hu_mus_True|1_108 (ssRNA)
RNA: GGGAGUUCUACAGUCCGACGAUCGACCUUGUACGUAAAAUACAUGCACACUUUUGAUAGCACAUGUGAGGGGAUCUCUCUAAAAUUGACCUCGUUGGUUUCAUUCUCAGCAAACUGACCUGGACCACUCAACAUAGCUUUUAUCAACAGAGGAUUGAGCAUCA
B4: chr14:78183846:78183847:+_ENSG00000119705_ENST00000557342|hu_hu|hu_hu_hu_mus_False|78_78 (ssRNA)
RNA: GGGAGUUCUACAGUCCGACGAUCUCUCAGAAAUCUUUCUUCAUCAGAUGUUUGAGCUGUUUGCGGAGCCUUUGCUCUUUGAGCUUGAACGUGGAUCUAUGGGAGGGAAAGCACUGUCAGAAAAGGUAAUUUUUUUUUUAAAGACAACAGAGGAUUGAGCAUCA
B5: chr4:76721835:76721836:+_ENSG00000138768_ENST00000264904|hu_mus|hu_hu_hu_mus_True|88_98 (ssRNA)
RNA: GGGAGUUCUACAGUCCGACGAUCGUUUGGCUGGGGUUCUGAGAUGCUCUGGAAUACUAACUCAUGUUUGCUAAUAAAUCCUAGUUUCUCUAUGAAAUUCUCUUUGCCAAUCCUCUUCUCUAUUAGUUGCUUUAGUUUCUCUUUCAACAGAGGAUUGAGCAUCA
B6: chr4:107908409:107908410:-_ENSMUSG00000034636_ENSMUST00000043616|mus_mus|FALSE|FALSE (ssRNA)
RNA: GGGAGUUCUACAGUCCGACGAUCUGAAACUGUAGAAUUUCAAGCACAAGUUAAGUUCAAACACUGAGAGAGAGAUUCCCUAAGAGACAAUAUUGAAGGAAGACCUUUCUUGCCUCAUAAGUUAAAAAUCACAAAACAAAUCAGCAACAGAGGAUUGAGCAUCA
B7: chr11:99071305:99071306:-_ENSMUSG00000037935_ENSMUST00000103133|mus_hu|FALSE|FALSE (ssRNA)
RNA: GGGAGUUCUACAGUCCGACGAUCAAGCCUUUGGUGGUGUGAUAUGGACAAGAAAAAAAAUUAAUACACAAACCACGUAACACCAUUAAAACCAAAAAACAUUUUUUCAUUAAAAAAAGUAUUUAGAACACACAAAACAAGGCACAACAGAGGAUUGAGCAUCA
B8: chr1:58468927:58468928:-_ENSMUSG00000026034_ENSMUST00000148330|mus_mus|FALSE|FALSE (ssRNA)
RNA: GGGAGUUCUACAGUCCGACGAUCAUUCUAUAAUUACUGAAAGAUGUUAUUUGGUUUGGCCAUGUAUUUAAUAAAGCAUCUAAAAAACAUAAAAUGUUUUACAAAUUAAGCUAUACAAAAUAACUUAAUUAAAAGCUAGACUGACAACAGAGGAUUGAGCAUCA
B9: chrX:71549762:71549763:+_ENSMUSG00000019087_ENSMUST00000019231|mus_mus|mus_mus_mus_hu_False|8_28 (ssRNA)
RNA: GGGAGUUCUACAGUCCGACGAUCAAACCCGUGUACUUCUUAUUGUUAGCACAACAUCACCAGAAAACGAUAACGACAGCCAAGCAGGACAGACAGUUAAGUAGUACUUCCACACCUCCAAACUCAGAGGAACCUCAAACCUUACAACAGAGGAUUGAGCAUCA
B10: chr4:174295105:174295106:+_ENSG00000164105_ENST00000296504|hu_mus|FALSE|FALSE (ssRNA)
RNA: GGGAGUUCUACAGUCCGACGAUCUUGUGCUUUAUUUAGACCUGGUCUGGUUGGAAGCUUGAAGUGUCUUUUGUAUCUUCUAAGUGUAUUUACUUGUAAUUGGUACAAAUCAACCUCUGGAGUGUCGAUGUCCUGAACAGGCGACAACAGAGGAUUGAGCAUCA
B11: chr22:19452774:19452775:-_ENSG00000070010_ENST00000399523|hu_hu|hu_hu_hu_mus_False|1_48 (ssRNA)
RNA: GGGAGUUCUACAGUCCGACGAUCCUUCUCAUUGUAGUUGAUAGCAAUCACAUCUCCAGUCGUCAGACAGGCGAAGUUUCUCAAUGCGUUUUCUAAUACCGCUUUAGGGUUGGUAAUAUCCAGGAAGUCUGGGCUCUGAGGUUGCAACAGAGGAUUGAGCAUCA
B12: 225707191_225718299_805_CDS_ENSG00000154380_ENST00000366843|human|control|control (ssRNA)
RNA: GGGAGUUCUACAGUCCGACGAUCCCUUUCUCUUUCCAUUCUUUCUCGCUCCAGCCUUUCCCGCUCCAGCUCCUUUUGCCGUUGCUGUUCUUGUAGUUGUCUUCUUUGAAUUUCCAAUUCUUCUUGGGAUGGGCCAUUUUGAACCAACAGAGGAUUGAGCAUCA
B13: 172841103_172841223_927_CDS_ENSG00000128708_ENST00000264108|human|control|control (ssRNA)
RNA: GGGAGUUCUACAGUCCGACGAUCUGCCUCUAUCGCCAUAUCUUCAUUGAAUCCUUGCAUUAAUUUUUCCCGGGAAAAACAGGGCAAAUCUUGACAAAGCUUCACAAGCACAAAGUCUCGUAAUUUCACAUAGCUUUUGGAUGGCAACAGAGGAUUGAGCAUCA
B14: chr6:53156713:53156714:-_ENSG00000012660_ENST00000304434|hu_mus|FALSE|FALSE (ssRNA)
RNA: GGGAGUUCUACAGUCCGACGAUCAACAGAACAGACAAACGUAGGGAUGUAAUUGUCCAGGAGGAACCAUCCUUUGACUCUUGUAUCUCGGGGGCCCAGGAAGGCCUUGAAAUAGGUACUGAGUGACGCAUCGAAAUGUUCCAUCAACAGAGGAUUGAGCAUCA

target: T1, UNK ZnF1-3; assay: nsRBNS (natural sequence RNA bind-n-seq); RBNS binding buffer (assumed for nsRBNS): 25 mM Tris pH 7.5, 150 mM KCl, 3 mM MgCl2, 0.01% Triton X-100, 500 ug/ml BSA, 20 U/ml SUPERase-In, 4 C; UNK is unkempt and MSI1 is Musashi-1; names of the RNAs are library labels; protein concentration not given here; high values mean tight binding

Row | Binder | binding signal
1 | B1 | 0.4 enrichment R
2 | B2 | 1.08 enrichment R
3 | B3 | 0.804 enrichment R
4 | B4 | 1.61 enrichment R
5 | B5 | 0.414 enrichment R
6 | B6 | 1.03 enrichment R
7 | B7 | 2.43 enrichment R
8 | B8 | 0.967 enrichment R
9 | B9 | 1.43 enrichment R
10 | B10 | 0.475 enrichment R
11 | B11 | 0.724 enrichment R
12 | B12 | 0.249 enrichment R
13 | B13 | 1.17 enrichment R
14 | B14 | 0.971 enrichment R
